Test results reported in a collection of fitness landscapes (doi:10.1016/j.celrep.2020.107928).
Over roughly 81,000 sequences, “one-hybrid fitness for binding NBS DNA” has its median near -0.1; the highest 2% begin near 0.36. The list shows a part of the results.

B1: Caulobacter ParB omega fusion; a variant is named by its letters at X, in order, B8GW30 (parent)
chain: MESVVVGEPGMSEGRRGLGRGLSALLGEVDAAPAQAPGEQLGGSREAPIEILQRNPDQPRRTFREEDLEDLSNSIREKGVLQPILVRPSPDTAGEYQIVAGERAWRAAQRAGLKTVPIMVRELDDLAVLEIGIIENVQRADLNVLEEALSYKVLMEKFERTQENIAQTIGKSXSHVANXMRLLXLPDEVQSYLVSGELTAXHARAIAAAADPVALAKQIIEGGLSVRETEALARKAPNLSAGKSKGGRPPRVKDTDTQALESDLSSVLGLDVSIDHRGSTGTLTITYATLEQLDDLCNRLTRGI

Variants of: B1
Experiment: one-hybrid fitness for binding NBS DNA (the Noc-binding site; scaled: cognate 1, non-cognate 0); higher = stronger binding
Settings: with NBS DNA site
Method in brief: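 Fitness is the rescaled log change in variant-to-wild-type read ratio, measured by Illumina sequencing of plasmids before and after bacterial one-hybrid selection. The scale puts cognate at 1 and non-cognate at 0. Selection of Caulobacter ParB libraries, four specificity codons randomised, took place in E. coli USO with a HIS3 reporter, site 19 bp from the promoter, over 48 hours at 37°C on M9-minus-histidine with 0.1 mM IPTG and 5 mM 3-AT.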

Variant | one-hybrid fitness for binding NBS DNA
IDDD | ≤ 0.2
RPET | ≤ 0.2
PRHQ | ≤ 0.2
TTFL | ≤ 0.2
RAYL | ≤ 0.2
NLMT | ≤ 0.2
RRHP | ≤ 0.2
HHYW | ≤ 0.2
TNGT | ≤ 0.2
LNLK | ≤ 0.2
QNHT | ≤ 0.2
SDEC | ≤ 0.2
KQEC | ≤ 0.2
GFYR | ≤ 0.2
KDYT | ≤ 0.2
ELHV | ≤ 0.2
KRSF | ≤ 0.2
RCVV | ≤ 0.2
QKFL | ≤ 0.2
WWPT | ≤ 0.2
SAHY | ≤ 0.2
PLCY | ≤ 0.2
TNSR | ≤ 0.2
VTAR | ≤ 0.2
SPNG | ≤ 0.2
AHHY | ≤ 0.2

Variant | one-hybrid fitness for binding NBS DNA
PVPS | ≤ 0.2
HLWS | ≤ 0.2
LQRS | ≤ 0.2
WPLK | ≤ 0.2
SDDL | ≤ 0.2
NNAP | ≤ 0.2
NRKR | 0.309
SYKN | ≤ 0.2
DNTR | ≤ 0.2
AARS | ≤ 0.2
YSLI | ≤ 0.2
CPHM | ≤ 0.2
SMTI | ≤ 0.2
YGNL | ≤ 0.2
RFNT | 0.279
NDGY | ≤ 0.2
TLDR | ≤ 0.2
KRGV | ≤ 0.2
RDSK | ≤ 0.2
AKEW | ≤ 0.2
HGIG | ≤ 0.2
CVWS | ≤ 0.2
QHRH | 0.494
FASY | ≤ 0.2
NMYT | ≤ 0.2
QMRC | 0.406

Variant | one-hybrid fitness for binding NBS DNA
RKFQ | ≤ 0.2
WKTT | ≤ 0.2
KTMP | ≤ 0.2
WAYH | ≤ 0.2
CGAS | 0.215
FVPY | ≤ 0.2
NMPI | ≤ 0.2
VTDM | ≤ 0.2
TQHN | ≤ 0.2
SPLR | ≤ 0.2
MEAE | ≤ 0.2
PGNS | ≤ 0.2
QRRS | 0.787
WKAG | ≤ 0.2
LLIG | ≤ 0.2
SSRG | ≤ 0.2
SWGI | ≤ 0.2
RPGE | ≤ 0.2
YRHE | ≤ 0.2
TKYR | ≤ 0.2
GFGS | ≤ 0.2
IVRY | ≤ 0.2
WHRT | ≤ 0.2
VNIY | ≤ 0.2
AWWG | ≤ 0.2
KTCN | ≤ 0.2

Variant | one-hybrid fitness for binding NBS DNA
YEST | ≤ 0.2
DRPR | ≤ 0.2
REID | ≤ 0.2
QDPM | ≤ 0.2
LHPH | ≤ 0.2
VVDS | ≤ 0.2
EVLT | ≤ 0.2
FLAC | ≤ 0.2
HNAR | ≤ 0.2
AWVC | ≤ 0.2
HLNG | ≤ 0.2
YMRG | ≤ 0.2
EARV | ≤ 0.2
QADI | ≤ 0.2
LNPM | ≤ 0.2
VAAC | ≤ 0.2
YGKM | ≤ 0.2
YESR | ≤ 0.2
EKLV | ≤ 0.2
FYNS | ≤ 0.2
KWNT | ≤ 0.2
LEKQ | ≤ 0.2
LIWR | ≤ 0.2
AGIA | ≤ 0.2
SKLA | ≤ 0.2
NVLS | ≤ 0.2

Variant | one-hybrid fitness for binding NBS DNA
QQYP | ≤ 0.2
WSNR | ≤ 0.2
KAKT | 0.252
WHLG | ≤ 0.2
QVMA | ≤ 0.2
EVET | ≤ 0.2
NSMS | ≤ 0.2
RCRQ | 0.202
LTNY | ≤ 0.2
RYKQ | ≤ 0.2
VSSK | ≤ 0.2
AYGY | ≤ 0.2
NDRL | ≤ 0.2
CHCR | ≤ 0.2
MAGC | ≤ 0.2
WSSI | ≤ 0.2
SVRC | ≤ 0.2
WIYE | ≤ 0.2
GPEY | ≤ 0.2
SVAF | ≤ 0.2
QSMI | ≤ 0.2
QEMT | ≤ 0.2
VTGP | ≤ 0.2
PYQS | ≤ 0.2
SYNK | ≤ 0.2
VING | ≤ 0.2

Variant | one-hybrid fitness for binding NBS DNA
RFWD | ≤ 0.2
HLNE | ≤ 0.2
EKVW | ≤ 0.2
TANP | ≤ 0.2
TDND | ≤ 0.2
GGKS | ≤ 0.2
LVPI | ≤ 0.2
IANM | ≤ 0.2
REGP | ≤ 0.2
GAAA | ≤ 0.2
GRSH | ≤ 0.2
GEHL | ≤ 0.2
SGWL | ≤ 0.2
ADDL | ≤ 0.2
KYMP | ≤ 0.2
CTRV | ≤ 0.2
IHTT | ≤ 0.2
FYHT | ≤ 0.2
DRNC | ≤ 0.2
RDAW | ≤ 0.2
LDNF | ≤ 0.2
RTFI | ≤ 0.2
YRDF | ≤ 0.2
